# Laboratory results as given in PubChem BioAssay AID2100 (National Center for Advancing Translational Sciences (NCATS), 2009).
# Out of some 300,000 compounds screened, about 1,200 (0.4%) were called active. The shares of active, inactive and inconclusive entries below differ from those in the screen. Calls come from the whole dose curve; as a rule, active = well fitted inhibition curve with a large enough effect; inconclusive = small, poorly fitted or top-dose-only effect, or another doubt; inactive = no such curve, though single readings can be large or run the other way. A potency beside an inconclusive call is a rough fit, not a confirmed value.
# Molecular target: Lysosomal alpha-glucosidase (Homo sapiens) (UniProt P10253)
# Test: qHTS Assay for Inhibitors and Activators of Human alpha-Glucosidase Cleavage of Glycogen
# Settings: recombinant GAA, glycogen substrate, Amplex Red glucose oxidase fluorescence; series mostly up to 76.4 µM
# Method in brief: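 Recombinant enzyme (4 nM final) with compounds titrated up to 77 uM and bovine liver glycogen (30 ug) in citrate pH 5.0, 0.01% Tween-20, 37 C 40 min. Released glucose detected by Amplex Red/glucose oxidase (Ex 573/Em 610); AC50 from Hill fits.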
# Potency is the fitted concentration of half-maximal effect.
row,Structure (SMILES),Potency
1,CC(C(=O)Nc1ccc(S(N)(=O)=O)cc1)N1CCc2ccccc21 (stereo not drawn),"inconclusive: 9.92 µM [inhibitor, partial curve]"
2,O=C(O)c1ccc(N/N=C2/CCSc3ccc(F)cc32)cc1,"inconclusive: 35.5 µM [inhibitor, single point]"
3,N#CCC1c2ccccc2CCN1C(=O)Nc1ccc(C(F)(F)F)cc1 (stereo not drawn),inactive
4,N#Cc1nc(-c2ccc(COc3ccccc3)o2)oc1NCc1ccccc1,"inconclusive: 20 µM [inhibitor, single point]"
5,O=C(CN1CCN(c2ccc(O)cc2)CC1)Nc1ccc(SC(F)F)cc1,"inconclusive: 8.91 µM [inhibitor, partial curve]"
6,CCCSc1ncc(Cl)c(C(=O)N(Cc2ccc(N(C)C)cc2)C2CCS(=O)(=O)C2)n1 (stereo not drawn),"inconclusive: 50.1 µM [inhibitor, partial curve]"
7,O=C1CC(N2CCN(c3ccc(O)cc3)CC2)C(=O)N1Cc1cccs1 (stereo not drawn),active: 6.31 µM
8,Cc1[nH][nH]c(=O)c1C(c1cc([N+](=O)[O-])ccc1O)c1c(C)[nH][nH]c1=O,"inconclusive: 28.2 µM [inhibitor, partial curve]"
9,CCOc1ccc(NCc2ccccc2OCc2cccc(F)c2)cc1,"inconclusive: 35.5 µM [inhibitor, partial curve]"
10,Oc1c(CN2CCOCC2)ccc2ccccc12,"inconclusive: 14.1 µM [inhibitor, partial curve]"
11,OC(COC(c1ccccc1)c1ccccc1)CN1CCc2ccccc2C1 (stereo not drawn),inactive
12,COC(=O)C1=C(N)Oc2cc(C)n(Cc3ccco3)c(=O)c2C1c1cccc(Cl)c1 (stereo not drawn),inactive
13,COC(=O)Cc1[nH]nc2c1C(c1cccc(OC)c1OC)C(C#N)=C(N)O2 (stereo not drawn),"inconclusive: 31.4 µM [inhibitor, partial curve]"
14,COc1ccccc1NS(=O)(=O)c1cc(NC(=O)c2sccc2C)ccc1N1CCCC1,"inconclusive: 39.8 µM [inhibitor, partial curve]"
15,C=C1c2ccccc2NC(=S)N1Cc1ccc2c(c1)OCO2,"inconclusive: 50.1 µM [inhibitor, single point]"
16,C(=N\Nc1nn2cnnc2c2ccccc12)/c1ccco1,"inconclusive: 25.1 µM [inhibitor, single point]"
17,Oc1ccccc1NCC(O)Cn1ccc2ccccc21 (stereo not drawn),"inconclusive: 35.5 µM [inhibitor, partial curve]"
18,Cc1c(C(=O)NN)nn(-c2ccc(Cl)cc2)c(=O)c1C#N,"inconclusive: 50.1 µM [inhibitor, single point]"
19,O=S(=O)(c1ccccc1)c1cc(O)ccc1O,"inconclusive: 2.22 µM [inhibitor, full curve]"
20,COc1cc(/C=N/N2C(C)CCCC2C)cc(Br)c1O (stereo not drawn),"inconclusive: 3.98 µM [inhibitor, full curve]"
21,Cc1cc(C)c2c(CC(=O)Nc3ccc(Cl)cn3)coc2c1,"inconclusive: 2.82 µM [inhibitor, partial curve]"
22,COc1ccc2c(Cl)c(C(=O)NN)sc2c1,active: 15.7 µM

row,Structure (SMILES),Potency
1,Cc1ccc(N2C(=O)CC(Sc3ccccc3C(=O)O)C2=O)c([N+](=O)[O-])c1 (stereo not drawn),"inconclusive: 50.1 µM [inhibitor, single point]"
2,CCOC(=O)C/C(=N\Nc1ncnc2ccccc12)c1ccccc1,"inconclusive: 39.8 µM [inhibitor, single point]"
3,O=C(c1cccs1)N1N=C(c2ccccc2)CC1c1ccccc1O (stereo not drawn),inactive
4,O=C(/C=C/Nc1ccc(Nc2ccccc2)cc1)c1cccs1,"inconclusive: 24.9 µM [inhibitor, single point]"
5,CCCn1cc(S(=O)(=O)c2cc(C)ccc2C)c(=O)c2cc(F)c(N3CCOCC3)cc21,"inconclusive: 35.5 µM [inhibitor, partial curve]"
6,O=C(O)C1Nc2c(O)cccc2C2C=CCC12 (stereo not drawn),"inconclusive: 31.6 µM [activator, single point]"
7,CC(=O)Nc1ccc(C2Sc3ccccc3NC3=C2C(=O)c2ccccc23)cc1 (stereo not drawn),"inconclusive: 11.2 µM [inhibitor, single point]"
8,COC(=O)Nc1c(-c2ccccc2)nc2ccc(Cl)cn12,inactive
9,O=C1CC(N2CCc3ccccc32)C(=O)N1c1ccccc1 (stereo not drawn),"inconclusive: 20 µM [inhibitor, partial curve]"
10,Cc1cc(-c2n[nH]c(=S)n2Cc2ccccc2)cs1,"inconclusive: 50.1 µM [inhibitor, single point]"
11,NS(=O)(=O)c1ccc(NNC(=O)c2ccc(F)cc2F)cc1,"inconclusive: 6.31 µM [inhibitor, partial curve]"
12,O=C(NC(=S)NNC(=O)c1cccs1)c1ccc(Br)o1,"inconclusive: 28.2 µM [inhibitor, partial curve]"
13,O=C(O)COc1c(-c2ccccc2)oc2ccccc2c1=O,"inconclusive: 39.5 µM [inhibitor, single point]"
14,Cc1cccc(NC(=S)NNC(=O)CCn2cc(C)cn2)c1,"inconclusive: 20 µM [inhibitor, partial curve]"
15,CCCCCOC(=O)CSc1ncnc2c1sc1nc(N3CCOCC3)c3c(c12)CCCC3,inactive
16,COC(C)(C)[C@]12CC(O)(C(C)C)ON1[C@H]1CCCCC1N2O (stereo partly drawn),"inconclusive: 19.8 µM [inhibitor, single point]"
17,S=C(Nc1ccc2nc(-c3ccccn3)c(-c3ccccn3)nc2c1)N1CCOCC1,"inconclusive: 35.2 µM [inhibitor, single point]"
18,Cc1ccc(NN=C2c3ccccc3-c3ccccc32)cc1,"inconclusive: 39.8 µM [inhibitor, partial curve]"
19,CCCn1cc(S(=O)(=O)c2ccccc2)c(=O)c2cc(F)c(N3CCCCCC3)cc21,"inconclusive: 56.2 µM [inhibitor, single point]"
20,Oc1ccc(N=C/C=C/c2cccc(Br)c2)cc1-c1nc2ccccc2s1,"inconclusive: 31.6 µM [activator, single point]"
21,Clc1ccc(/C=N/Nc2ccccn2)cc1,"inconclusive: 19.8 µM [inhibitor, single point]"
